Results published in patent US8937048B2, “Anti-angiogenic compounds” (Covx Technologies Ireland, Limited, priority 2008, dated 2015).
At least one structure is not confirmed: it was looked up by name or label, or the drawing left a doubt.

Molecular target: T1, recombinant human VEGF165 (Homo sapiens, UniProt P15692)
T1 sequence (P15692 27-191 isoform P15692-4): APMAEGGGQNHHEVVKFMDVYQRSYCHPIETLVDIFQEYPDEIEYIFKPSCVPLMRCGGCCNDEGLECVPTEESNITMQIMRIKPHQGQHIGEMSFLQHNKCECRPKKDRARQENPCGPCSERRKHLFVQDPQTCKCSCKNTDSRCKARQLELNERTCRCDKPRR
Assay: VEGF peptide binding assay (competition ELISA, VEGF165 binding to coated VEGFR2/Fc)
Settings: read-out: VEGF Binding IC50; Table 2 (E12 peptides); capped with C(O)CH3 and NH2
Experimental: High-binding half-well 96-well plates (Costar #3690) were coated with recombinant human VEGFR2/Fc (50 ng/well) in 50 μl PBS, and incubated at 4° C. overnight. After washing the plates three times with 1× washing buffer (KPL Cat#50-65-00) and blocking with Superblock (Scytek #AAA500) at room temperature (RT) for 1 hour, VEGF-peptides of the invention were serially diluted (concentrations: 0.128-10,000 nM) in the presence of 25 ng/ml of recombinant human VEGF165 in […] Superblock, and were then added to the 96-well plates and incubated at RT for 1 hour. Peptides of the invention tested in this fashion were all capped at the amino terminus with a C(O)CH3 group and at the carboxyl terminus with a NH2 group. The plates were then washed three times with washing buffer, and a diluted (1:500) biotinylated anti-human VEGF antibody (R&D systems, Cat# BAF293) was added and incubated at RT for 2 hours. After washing the plates, streptavidin HRP conjugate (1:200 in Superblock) (R&D systems, Cat# DY998) was added to detect the bound anti-VEGF antibody, followed by addition of tetramethylbenzidine (TMB) substrate (Pierce, Cat#34021) for color development. The reaction was stopped with 2 M H2SO4. OD450 was measured using SpectraMax (Molecular Device) with a correction wavelength of 540 nm. The data were analyzed using Prism software. OD450 values were plotted as a function of the concentrations of the VEGF peptides. IC50 values, indicative of the potency of the VEGF peptides to inhibit VEGF-VEGFR2 interaction, were obtained using a sigmoid dose-response curve fit in Prism.

| Structure (SMILES) | IC50 [nM] |
| --- | --- |
| CC[C@H](C)[C@@H]1NC(=O)[C@H](CC(=O)O)NC(=O)[C@@H](NC(=O)[C@H](CC(N)=O)NC(=O)[C@@H]2CCCN2C(=O)[C@H](CCC(=O)O)NC(=O)[C@@H](NC(C)=O)C(C)C)CSSC[C@@H](C(=O)N[C@@H](Cc2ccccc2)C(=O)N[C@@H](CCC(=O)O)C(=O)N[C@@H](CCCNC(=N)N)C(=O)N[C@@H](CC(C)C)C(=O)N[C@@H](Cc2ccccc2)C(=O)N[C@@H](CCCCN)C(=O)N[C@@H](CCC(=O)O)C(=O)N[C@@H](C)C(N)=O)NC(=O)[C@H](CCC(=O)O)NC(=O)[C@H](Cc2c[nH]c3ccccc23)NC(=O)[C@H](CCC(=O)O)NC(=O)[C@H](Cc2c[nH]c3ccccc23)NC(=O)[C@H](CCSC)NC(=O)[C@H](C(C)C)NC(=O)[C@H](Cc2c[nH]cn2)NC1=O [Compound 119, VEPNCDIHVMWEWECFERLYFKEA] | 51 |
| CC[C@H](C)[C@@H]1NC(=O)[C@H](CC(=O)O)NC(=O)[C@@H](NC(=O)[C@H](CC(N)=O)NC(=O)[C@@H]2CCCN2C(=O)[C@H](CCC(=O)O)NC(=O)[C@@H](NC(C)=O)C(C)C)CSSC[C@@H](C(=O)N[C@@H](Cc2ccccc2)C(=O)N[C@@H](CCC(=O)O)C(=O)N[C@@H](CCCNC(=N)N)C(=O)N[C@@H](CC(C)C)C(=O)N[C@@H](Cc2ccc(O)cc2)C(=O)NCC(=O)NCC(=O)NCC(N)=O)NC(=O)[C@H](CCC(=O)O)NC(=O)[C@H](Cc2c[nH]c3ccccc23)NC(=O)[C@H](CCC(=O)O)NC(=O)[C@H](Cc2c[nH]c3ccccc23)NC(=O)[C@H](CCSC)NC(=O)[C@H](C(C)C)NC(=O)[C@H](Cc2c[nH]cn2)NC1=O [Compound 120, VEPNCDIHVMWEWECFERLYYGGG] | 32 |
| CC[C@H](C)[C@@H]1NC(=O)[C@H](CC(=O)O)NC(=O)[C@@H](NC(=O)[C@H](CC(N)=O)NC(=O)[C@@H]2CCCN2C(=O)[C@H](CCC(=O)O)NC(=O)[C@@H](NC(C)=O)C(C)C)CSSC[C@@H](C(=O)N[C@@H](Cc2ccccc2)C(=O)N[C@@H](CCC(=O)O)C(=O)N[C@@H](CCCNC(=N)N)C(=O)N[C@@H](CC(C)C)C(=O)N[C@@H](CCSC)C(=O)N[C@@H](CCCCN)C(N)=O)NC(=O)[C@H](CCC(=O)O)NC(=O)[C@H](Cc2c[nH]c3ccccc23)NC(=O)[C@H](CCC(=O)O)NC(=O)[C@H](Cc2c[nH]c3ccccc23)NC(=O)[C@H](CCSC)NC(=O)[C@H](C(C)C)NC(=O)[C@H](Cc2c[nH]cn2)NC1=O [Compound 121, VEPNCDIHVMWEWECFERLYMK] | 26 |
